# Reference: patent publication US20230056881A1 (Merck KGaA, published 2023)
# Target: T1, human PD-L1 (human, UniProt Q9NZQ7)
# T1 construct: whole, on cells; also called Programmed Death Ligand 1; HEK/PD-L1 cells
# Experiment: FACS on HEK cells stably transfected to express human PD-L1
# Sequence of human PD-L1 (Q9NZQ7 19-290): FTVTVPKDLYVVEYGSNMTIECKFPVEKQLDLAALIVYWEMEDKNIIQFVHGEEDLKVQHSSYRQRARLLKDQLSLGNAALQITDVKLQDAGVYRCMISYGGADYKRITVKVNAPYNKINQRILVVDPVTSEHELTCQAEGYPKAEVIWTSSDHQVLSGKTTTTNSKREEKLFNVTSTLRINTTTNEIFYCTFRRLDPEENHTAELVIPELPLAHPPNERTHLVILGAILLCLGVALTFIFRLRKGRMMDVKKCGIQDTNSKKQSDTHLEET
binder,measurement,value
"anti-PD-L1(mut)/TGFβ Trap (other, also called anti-PD-L1(mut)/TGFβ Trap fusion protein; TGFβ Trap control) heavy: EVQLLESGGGLVQPGGSLRLSCAASGFTFSMYMMMWVRQAPGKGLEWVSSIYPSGGITFYADSVKGRFTISRDNSKNTLYLQMNSLRAEDTAIYYCARIKLGTVTTVDYWGQGTLVTVSSASTKGPSVFPLAPSSKSTSGGTAALGCLVKDYFPEPVTVSWNSGALTSGVHTFPAVLQSSGLYSLSSVVTVPSSSLGTQTYICNVNHKPSNTKVDKRV[sequence of human IgG1 Fc omitted]GGGGSGGGGSGGGGSGGGGSGIPPHVQKSVNNDMIVTDNNGAVKFPQLCKFCDVRFSTCDNQKSCMSNCSITSICEKPQEVCVAVWRKNDENITLETVCHDPKLPYHDFILEDAASPKCIMKEKKKPGETFFMCSCSSDECNDNIIFSEEYNTSNPD light: QSALTQPASVSGSPGQSITISCTGTSSDVGGYNYVSWYQQHPGKAPKLMIYEVSNRPSGVSNRFSGSKSGNTASLTISGLQAEDEADYYCSSYTSSSTYVFGTGTKVTVLGQPKANPTVTLFPPSSEELQANKATLVCLISDFYPGAVTVAWKADGSPVKAGVETTKPSKQSNNKYAASSYLSLTPEQWKSHRSYSCQVTHEGSTVEKTVAPTECS",binding result,no binding
